{"source": "a collection of fitness landscapes (doi:10.1016/j.celrep.2020.107928)", "parents": {"B1": {"name": "Caulobacter ParB omega fusion; a variant is named by its letters at X, in order, B8GW30 (parent)", "chain": "MESVVVGEPGMSEGRRGLGRGLSALLGEVDAAPAQAPGEQLGGSREAPIEILQRNPDQPRRTFREEDLEDLSNSIREKGVLQPILVRPSPDTAGEYQIVAGERAWRAAQRAGLKTVPIMVRELDDLAVLEIGIIENVQRADLNVLEEALSYKVLMEKFERTQENIAQTIGKSXSHVANXMRLLXLPDEVQSYLVSGELTAXHARAIAAAADPVALAKQIIEGGLSVRETEALARKAPNLSAGKSKGGRPPRVKDTDTQALESDLSSVLGLDVSIDHRGSTGTLTITYATLEQLDDLCNRLTRGI"}}, "note": "In all, about 81,000 sequences were measured (“one-hybrid fitness for binding parS DNA”: median about -0.17, highest 2% from about 0.51 on). This is one part of the list.", "data": [{"variants_of": "B1", "assay": "one-hybrid fitness for binding parS DNA (scaled: cognate 1, non-cognate 0); higher = stronger binding", "conditions": "with parS DNA site", "in_short": "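Values were rescaled so that cognate is 1 and non-cognate is 0. Each is a fitness, the log change in a variant's read ratio to wild type from Illumina reads of plasmids before and after selection, with three replicate libraries pooled and variants under 10 reads dropped. Selection of the Caulobacter ParB libraries, four specificity codons randomised, used E. coli USO with a HIS3 reporter, site 19 bp from the promoter, on M9-minus-histidine with 0.1 mM IPTG and 5 mM 3-AT for 48 hours at 37°C.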", "values": [{"variant": "WLLH", "one-hybrid fitness for binding parS DNA": "≤ 0.2"}, {"variant": "AFWW", "one-hybrid fitness for binding parS DNA": "≤ 0.2"}, {"variant": "QVTP", "one-hybrid fitness for binding parS DNA": "≤ 0.2"}, {"variant": "STFC", "one-hybrid fitness for binding parS DNA": "≤ 0.2"}, {"variant": "RWGI", "one-hybrid fitness for binding parS DNA": "≤ 0.2"}, {"variant": "GQPM", "one-hybrid fitness for binding parS DNA": "≤ 0.2"}, {"variant": "WAFR", "one-hybrid fitness for binding parS DNA": "≤ 0.2"}, {"variant": "PTKA", "one-hybrid fitness for binding parS DNA": "≤ 0.2"}, {"variant": "WACC", "one-hybrid fitness for binding parS DNA": "≤ 0.2"}, {"variant": "NVDM", "one-hybrid fitness for binding parS DNA": "≤ 0.2"}, {"variant": "TQVD", "one-hybrid fitness for binding parS DNA": "≤ 0.2"}, {"variant": "VCSS", "one-hybrid fitness for binding parS DNA": "≤ 0.2"}, {"variant": "WRHV", "one-hybrid fitness for binding parS DNA": "≤ 0.2"}, {"variant": "TQWR", "one-hybrid fitness for binding parS DNA": "≤ 0.2"}, {"variant": "YLQG", "one-hybrid fitness for binding parS DNA": "≤ 0.2"}, {"variant": "SAVD", "one-hybrid fitness for binding parS DNA": "≤ 0.2"}, {"variant": "LCFT", "one-hybrid fitness for binding parS DNA": "≤ 0.2"}, {"variant": "VQSV", "one-hybrid fitness for binding parS DNA": "≤ 0.2"}, {"variant": "ACLI", "one-hybrid fitness for binding parS DNA": "≤ 0.2"}, {"variant": "SLIT", "one-hybrid fitness for binding parS DNA": "≤ 0.2"}, {"variant": "WRKR", "one-hybrid fitness for binding parS DNA": "≤ 0.2"}, {"variant": "TNYW", "one-hybrid fitness for binding parS DNA": "≤ 0.2"}, {"variant": "TWPR", "one-hybrid fitness for binding parS DNA": "≤ 0.2"}, {"variant": "CYTV", "one-hybrid fitness for binding parS DNA": "≤ 0.2"}, {"variant": "HSCT", "one-hybrid fitness for binding parS DNA": "≤ 0.2"}, {"variant": "RVMH", "one-hybrid fitness for binding parS DNA": "≤ 0.2"}, {"variant": "DHNE", "one-hybrid fitness for binding parS DNA": "≤ 0.2"}, {"variant": "QPIC", "one-hybrid fitness for binding parS DNA": "≤ 0.2"}, {"variant": "GLTA", "one-hybrid fitness for binding parS DNA": "≤ 0.2"}, {"variant": "QGCC", "one-hybrid fitness for binding parS DNA": "≤ 0.2"}, {"variant": "AVYC", "one-hybrid fitness for binding parS DNA": "≤ 0.2"}, {"variant": "YNAK", "one-hybrid fitness for binding parS DNA": "≤ 0.2"}, {"variant": "QRIY", "one-hybrid fitness for binding parS DNA": "≤ 0.2"}, {"variant": "NITM", "one-hybrid fitness for binding parS DNA": "≤ 0.2"}, {"variant": "KPKK", "one-hybrid fitness for binding parS DNA": "≤ 0.2"}, {"variant": "KCMS", "one-hybrid fitness for binding parS DNA": "≤ 0.2"}, {"variant": "HTIC", "one-hybrid fitness for binding parS DNA": "≤ 0.2"}, {"variant": "VPFT", "one-hybrid fitness for binding parS DNA": "≤ 0.2"}, {"variant": "CKKL", "one-hybrid fitness for binding parS DNA": "≤ 0.2"}, {"variant": "MMIR", "one-hybrid fitness for binding parS DNA": "≤ 0.2"}, {"variant": "INLT", "one-hybrid fitness for binding parS DNA": "≤ 0.2"}, {"variant": "RVCT", "one-hybrid fitness for binding parS DNA": 0.926}, {"variant": "REVN", "one-hybrid fitness for binding parS DNA": "≤ 0.2"}, {"variant": "AAIL", "one-hybrid fitness for binding parS DNA": "≤ 0.2"}, {"variant": "DCAT", "one-hybrid fitness for binding parS DNA": "≤ 0.2"}, {"variant": "IESC", "one-hybrid fitness for binding parS DNA": "≤ 0.2"}, {"variant": "NASL", "one-hybrid fitness for binding parS DNA": "≤ 0.2"}, {"variant": "QRNC", "one-hybrid fitness for binding parS DNA": "≤ 0.2"}, {"variant": "TKKC", "one-hybrid fitness for binding parS DNA": "≤ 0.2"}, {"variant": "APNM", "one-hybrid fitness for binding parS DNA": "≤ 0.2"}, {"variant": "ALNS", "one-hybrid fitness for binding parS DNA": "≤ 0.2"}, {"variant": "RRFD", "one-hybrid fitness for binding parS DNA": "≤ 0.2"}, {"variant": "QYRT", "one-hybrid fitness for binding parS DNA": "≤ 0.2"}, {"variant": "NDSS", "one-hybrid fitness for binding parS DNA": "≤ 0.2"}, {"variant": "THTF", "one-hybrid fitness for binding parS DNA": "≤ 0.2"}, {"variant": "PILP", "one-hybrid fitness for binding parS DNA": "≤ 0.2"}, {"variant": "REED", "one-hybrid fitness for binding parS DNA": "≤ 0.2"}, {"variant": "CCDL", "one-hybrid fitness for binding parS DNA": "≤ 0.2"}, {"variant": "TMLR", "one-hybrid fitness for binding parS DNA": "≤ 0.2"}, {"variant": "HDSV", "one-hybrid fitness for binding parS DNA": "≤ 0.2"}, {"variant": "GCWT", "one-hybrid fitness for binding parS DNA": "≤ 0.2"}, {"variant": "ARMS", "one-hybrid fitness for binding parS DNA": "≤ 0.2"}, {"variant": "IRMG", "one-hybrid fitness for binding parS DNA": "≤ 0.2"}, {"variant": "SFVY", "one-hybrid fitness for binding parS DNA": "≤ 0.2"}, {"variant": "HEVG", "one-hybrid fitness for binding parS DNA": "≤ 0.2"}, {"variant": "HMHG", "one-hybrid fitness for binding parS DNA": "≤ 0.2"}, {"variant": "KCIS", "one-hybrid fitness for binding parS DNA": "≤ 0.2"}, {"variant": "HHCC", "one-hybrid fitness for binding parS DNA": "≤ 0.2"}, {"variant": "RWTY", "one-hybrid fitness for binding parS DNA": 0.37}, {"variant": "FTAS", "one-hybrid fitness for binding parS DNA": "≤ 0.2"}, {"variant": "RGPC", "one-hybrid fitness for binding parS DNA": 0.217}, {"variant": "CMGS", "one-hybrid fitness for binding parS DNA": "≤ 0.2"}, {"variant": "HLVD", "one-hybrid fitness for binding parS DNA": "≤ 0.2"}, {"variant": "SQMA", "one-hybrid fitness for binding parS DNA": "≤ 0.2"}, {"variant": "PCPG", "one-hybrid fitness for binding parS DNA": "≤ 0.2"}, {"variant": "ICNG", "one-hybrid fitness for binding parS DNA": "≤ 0.2"}, {"variant": "KRWF", "one-hybrid fitness for binding parS DNA": "≤ 0.2"}, {"variant": "KKET", "one-hybrid fitness for binding parS DNA": "≤ 0.2"}, {"variant": "NPAD", "one-hybrid fitness for binding parS DNA": "≤ 0.2"}, {"variant": "KQSF", "one-hybrid fitness for binding parS DNA": "≤ 0.2"}, {"variant": "CSQE", "one-hybrid fitness for binding parS DNA": "≤ 0.2"}, {"variant": "LNQH", "one-hybrid fitness for binding parS DNA": "≤ 0.2"}, {"variant": "MSQQ", "one-hybrid fitness for binding parS DNA": "≤ 0.2"}, {"variant": "VSLQ", "one-hybrid fitness for binding parS DNA": "≤ 0.2"}, {"variant": "SSIC", "one-hybrid fitness for binding parS DNA": "≤ 0.2"}, {"variant": "EYDR", "one-hybrid fitness for binding parS DNA": "≤ 0.2"}, {"variant": "SLTP", "one-hybrid fitness for binding parS DNA": "≤ 0.2"}, {"variant": "SMPC", "one-hybrid fitness for binding parS DNA": "≤ 0.2"}, {"variant": "VGKC", "one-hybrid fitness for binding parS DNA": "≤ 0.2"}, {"variant": "YPGQ", "one-hybrid fitness for binding parS DNA": "≤ 0.2"}, {"variant": "IRKT", "one-hybrid fitness for binding parS DNA": "≤ 0.2"}, {"variant": "PRCY", "one-hybrid fitness for binding parS DNA": "≤ 0.2"}, {"variant": "AFEI", "one-hybrid fitness for binding parS DNA": "≤ 0.2"}, {"variant": "YQHT", "one-hybrid fitness for binding parS DNA": "≤ 0.2"}, {"variant": "KNNN", "one-hybrid fitness for binding parS DNA": "≤ 0.2"}, {"variant": "WCVG", "one-hybrid fitness for binding parS DNA": "≤ 0.2"}, {"variant": "YAHV", "one-hybrid fitness for binding parS DNA": "≤ 0.2"}, {"variant": "KPWT", "one-hybrid fitness for binding parS DNA": "≤ 0.2"}, {"variant": "WHFS", "one-hybrid fitness for binding parS DNA": "≤ 0.2"}, {"variant": "IYRA", "one-hybrid fitness for binding parS DNA": "≤ 0.2"}, {"variant": "CPTL", "one-hybrid fitness for binding parS DNA": "≤ 0.2"}, {"variant": "ILIR", "one-hybrid fitness for binding parS DNA": "≤ 0.2"}, {"variant": "RWVS", "one-hybrid fitness for binding parS DNA": 0.616}, {"variant": "ITGA", "one-hybrid fitness for binding parS DNA": "≤ 0.2"}, {"variant": "ACIR", "one-hybrid fitness for binding parS DNA": "≤ 0.2"}, {"variant": "AYHC", "one-hybrid fitness for binding parS DNA": "≤ 0.2"}, {"variant": "PKSC", "one-hybrid fitness for binding parS DNA": "≤ 0.2"}, {"variant": "PIAD", "one-hybrid fitness for binding parS DNA": "≤ 0.2"}, {"variant": "QPVN", "one-hybrid fitness for binding parS DNA": "≤ 0.2"}, {"variant": "PSFS", "one-hybrid fitness for binding parS DNA": "≤ 0.2"}, {"variant": "QGFS", "one-hybrid fitness for binding parS DNA": "≤ 0.2"}, {"variant": "SWSY", "one-hybrid fitness for binding parS DNA": "≤ 0.2"}, {"variant": "NWWR", "one-hybrid fitness for binding parS DNA": "≤ 0.2"}, {"variant": "AYSK", "one-hybrid fitness for binding parS DNA": "≤ 0.2"}, {"variant": "KEGR", "one-hybrid fitness for binding parS DNA": "≤ 0.2"}, {"variant": "LARS", "one-hybrid fitness for binding parS DNA": "≤ 0.2"}, {"variant": "DVWE", "one-hybrid fitness for binding parS DNA": "≤ 0.2"}, {"variant": "ATGP", "one-hybrid fitness for binding parS DNA": "≤ 0.2"}, {"variant": "YWSG", "one-hybrid fitness for binding parS DNA": "≤ 0.2"}, {"variant": "FYAT", "one-hybrid fitness for binding parS DNA": "≤ 0.2"}, {"variant": "RAQT", "one-hybrid fitness for binding parS DNA": 0.894}, {"variant": "HDCY", "one-hybrid fitness for binding parS DNA": "≤ 0.2"}, {"variant": "CDHV", "one-hybrid fitness for binding parS DNA": "≤ 0.2"}, {"variant": "HDPQ", "one-hybrid fitness for binding parS DNA": "≤ 0.2"}, {"variant": "CPWT", "one-hybrid fitness for binding parS DNA": "≤ 0.2"}, {"variant": "GKLH", "one-hybrid fitness for binding parS DNA": "≤ 0.2"}, {"variant": "RAVW", "one-hybrid fitness for binding parS DNA": 0.203}, {"variant": "GDRS", "one-hybrid fitness for binding parS DNA": "≤ 0.2"}, {"variant": "TRNW", "one-hybrid fitness for binding parS DNA": "≤ 0.2"}, {"variant": "ALKP", "one-hybrid fitness for binding parS DNA": "≤ 0.2"}, {"variant": "TWLT", "one-hybrid fitness for binding parS DNA": "≤ 0.2"}, {"variant": "TKVR", "one-hybrid fitness for binding parS DNA": "≤ 0.2"}, {"variant": "YRDG", "one-hybrid fitness for binding parS DNA": "≤ 0.2"}, {"variant": "PIPY", "one-hybrid fitness for binding parS DNA": "≤ 0.2"}, {"variant": "PVHK", "one-hybrid fitness for binding parS DNA": "≤ 0.2"}, {"variant": "ASAT", "one-hybrid fitness for binding parS DNA": "≤ 0.2"}, {"variant": "HIRT", "one-hybrid fitness for binding parS DNA": "≤ 0.2"}, {"variant": "LHWC", "one-hybrid fitness for binding parS DNA": "≤ 0.2"}, {"variant": "RYPR", "one-hybrid fitness for binding parS DNA": "≤ 0.2"}, {"variant": "TNLC", "one-hybrid fitness for binding parS DNA": "≤ 0.2"}, {"variant": "YGGT", "one-hybrid fitness for binding parS DNA": "≤ 0.2"}, {"variant": "PYHC", "one-hybrid fitness for binding parS DNA": "≤ 0.2"}, {"variant": "VVAY", "one-hybrid fitness for binding parS DNA": "≤ 0.2"}, {"variant": "AVKW", "one-hybrid fitness for binding parS DNA": "≤ 0.2"}, {"variant": "QNED", "one-hybrid fitness for binding parS DNA": "≤ 0.2"}, {"variant": "INMG", "one-hybrid fitness for binding parS DNA": "≤ 0.2"}, {"variant": "SRYE", "one-hybrid fitness for binding parS DNA": "≤ 0.2"}, {"variant": "MARG", "one-hybrid fitness for binding parS DNA": "≤ 0.2"}, {"variant": "LSGW", "one-hybrid fitness for binding parS DNA": "≤ 0.2"}, {"variant": "RYVV", "one-hybrid fitness for binding parS DNA": "≤ 0.2"}, {"variant": "TARR", "one-hybrid fitness for binding parS DNA": "≤ 0.2"}, {"variant": "PNQM", "one-hybrid fitness for binding parS DNA": "≤ 0.2"}, {"variant": "NYHK", "one-hybrid fitness for binding parS DNA": "≤ 0.2"}]}]}
